Some of the results follow.
How the values were obtained:
Test in all cases: glycan array binding signal (z-score within array); higher = stronger binding
Settings in all cases: glycan notation: IUPAC condensed, linker removed
[1] = biological target: Gal(b1-4)GlcNAc(b1-3)Gal(b1-4)GlcNAc(b1-2)[Gal(b1-4)GlcNAc(b1-3)Gal(b1-4)GlcNAc(b1-6)]Man(a1-6)[Gal(b1-4)GlcNAc(b1-3)Gal(b1-4)GlcNAc(b1-2)Man(a1-3)]Man(b1-4)GlcNAc(b1-4)GlcNAc
Procedure, shortened: (§1)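 Arrays were curated from the Consortium for Functional Glycomics database, 3228 in total, and kept only where the protein sequence was available. Binding is expressed as a within-array Z-score. This score was averaged across arrays of the same protein sequence at different concentrations or buffers and across linkers, and negative values can be read as non-binding.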

[2] = biological target: Gal(b1-4)GlcNAc(b1-3)Gal(b1-4)GlcNAc(b1-2)[Gal(b1-4)GlcNAc(b1-3)Gal(b1-4)GlcNAc(b1-6)]Man(a1-6)[Gal(b1-4)GlcNAc(b1-3)Gal(b1-4)GlcNAc(b1-2)Man(a1-3)]Man(b1-4)GlcNAc(b1-4)[Fuc(a1-6)]GlcNAc
Procedure, shortened: as §1

[3] = biological target: Gal(b1-4)GlcNAc(b1-3)Gal(b1-4)GlcNAc(b1-3)Gal(b1-4)GlcNAc
Procedure, shortened: as §1

[4] = biological target: Gal(b1-4)GlcNAc(b1-3)Gal(b1-4)GlcNAc(b1-3)Gal(b1-4)GlcNAc(b1-2)Man(a1-3)[Gal(b1-4)GlcNAc(b1-3)Gal(b1-4)GlcNAc(b1-3)Gal(b1-4)GlcNAc(b1-2)Man(a1-6)]Man(b1-4)GlcNAc(b1-4)GlcNAc
Procedure, shortened: as §1

[5] = biological target: Gal(b1-4)GlcNAc(b1-3)Gal(b1-4)GlcNAc(b1-3)Gal(b1-4)GlcNAc(b1-2)Man(a1-3)[Gal(b1-4)GlcNAc(b1-3)Gal(b1-4)GlcNAc(b1-3)Gal(b1-4)GlcNAc(b1-2)Man(a1-6)]Man(b1-4)GlcNAc(b1-4)[Fuc(a1-6)]GlcNAc
Procedure, shortened: as §1

[6] = biological target: Gal(b1-4)GlcNAc(b1-3)Gal(b1-4)GlcNAc(b1-3)Gal(b1-4)GlcNAc(b1-2)[Gal(b1-4)GlcNAc(b1-3)Gal(b1-4)GlcNAc(b1-3)Gal(b1-4)GlcNAc(b1-6)]Man(a1-6)[Gal(b1-4)GlcNAc(b1-3)Gal(b1-4)GlcNAc(b1-3)Gal(b1-4)GlcNAc(b1-2)Man(a1-3)]Man(b1-4)GlcNAc(b1-4)[Fuc(a1-6)]GlcNAc
Procedure, shortened: as §1

[7] = biological target: Gal(b1-4)GlcNAc(b1-3)Gal(b1-4)GlcNAc(b1-3)Gal(b1-4)GlcNAc(b1-3)Gal(b1-4)GlcNAc(b1-2)Man(a1-3)[Gal(b1-4)GlcNAc(b1-3)Gal(b1-4)GlcNAc(b1-3)Gal(b1-4)GlcNAc(b1-3)Gal(b1-4)GlcNAc(b1-2)Man(a1-6)]Man(b1-4)GlcNAc(b1-4)GlcNAc
Procedure, shortened: as §1

[8] = biological target: Gal(b1-4)GlcNAc(b1-3)Gal(b1-4)GlcNAc(b1-3)Gal(b1-4)GlcNAc(b1-3)Gal(b1-4)GlcNAc(b1-2)Man(a1-3)[Gal(b1-4)GlcNAc(b1-3)Gal(b1-4)GlcNAc(b1-3)Gal(b1-4)GlcNAc(b1-3)Gal(b1-4)GlcNAc(b1-2)Man(a1-6)]Man(b1-4)GlcNAc(b1-4)[Fuc(a1-6)]GlcNAc
Procedure, shortened: as §1

[9] = biological target: Gal(b1-4)GlcNAc(b1-3)Gal(b1-4)GlcNAc(b1-3)Gal(b1-4)GlcNAc(b1-3)Gal(b1-4)GlcNAc(b1-2)[Gal(b1-4)GlcNAc(b1-3)Gal(b1-4)GlcNAc(b1-3)Gal(b1-4)GlcNAc(b1-3)Gal(b1-4)GlcNAc(b1-6)]Man(a1-6)[Gal(b1-4)GlcNAc(b1-3)Gal(b1-4)GlcNAc(b1-3)Gal(b1-4)GlcNAc(b1-3)Gal(b1-4)GlcNAc(b1-2)Man(a1-3)]Man(b1-4)GlcNAc(b1-4)[Fuc(a1-6)]GlcNAc
Procedure, shortened: as §1

[10] = biological target: Gal(b1-4)GlcNAc(b1-3)Gal(b1-4)GlcNAc(b1-3)Gal(b1-4)GlcNAc(b1-3)Gal(b1-4)GlcNAc(b1-3)Gal(b1-4)GlcNAc(b1-2)Man(a1-3)[Gal(b1-4)GlcNAc(b1-3)Gal(b1-4)GlcNAc(b1-3)Gal(b1-4)GlcNAc(b1-3)Gal(b1-4)GlcNAc(b1-3)Gal(b1-4)GlcNAc(b1-2)Man(a1-6)]Man(b1-4)GlcNAc(b1-4)GlcNAc
Procedure, shortened: as §1

[11] = biological target: Gal(b1-4)GlcNAc(b1-3)Gal(b1-4)GlcNAc(b1-3)Gal(b1-4)GlcNAc(b1-3)Gal(b1-4)GlcNAc(b1-3)Gal(b1-4)GlcNAc(b1-2)Man(a1-3)[Gal(b1-4)GlcNAc(b1-3)Gal(b1-4)GlcNAc(b1-3)Gal(b1-4)GlcNAc(b1-3)Gal(b1-4)GlcNAc(b1-3)Gal(b1-4)GlcNAc(b1-2)Man(a1-6)]Man(b1-4)GlcNAc(b1-4)[Fuc(a1-6)]GlcNAc
Procedure, shortened: as §1

[12] = biological target: Gal(b1-4)GlcNAc(b1-3)Gal(b1-4)GlcNAc(b1-3)Gal(b1-4)GlcNAc(b1-3)Gal(b1-4)GlcNAc(b1-3)Gal(b1-4)GlcNAc(b1-2)[Gal(b1-4)GlcNAc(b1-3)Gal(b1-4)GlcNAc(b1-3)Gal(b1-4)GlcNAc(b1-3)Gal(b1-4)GlcNAc(b1-3)Gal(b1-4)GlcNAc(b1-6)]Man(a1-6)[Gal(b1-4)GlcNAc(b1-3)Gal(b1-4)GlcNAc(b1-3)Gal(b1-4)GlcNAc(b1-3)Gal(b1-4)GlcNAc(b1-3)Gal(b1-4)GlcNAc(b1-2)Man(a1-3)]Man(b1-4)GlcNAc(b1-4)[Fuc(a1-6)]GlcNAc
Procedure, shortened: as §1

[13] = biological target: Gal(b1-4)GlcNAc(b1-3)Gal(b1-4)GlcNAc(b1-3)Gal(b1-4)GlcNAc(b1-3)Gal(b1-4)GlcNAc(b1-3)Gal(b1-4)GlcNAc(b1-3)Gal(b1-4)GlcNAc(b1-2)Man(a1-3)[Gal(b1-4)GlcNAc(b1-3)Gal(b1-4)GlcNAc(b1-3)Gal(b1-4)GlcNAc(b1-3)Gal(b1-4)GlcNAc(b1-3)Gal(b1-4)GlcNAc(b1-3)Gal(b1-4)GlcNAc(b1-2)Man(a1-6)]Man(b1-4)GlcNAc(b1-4)GlcNAc
Procedure, shortened: as §1

[14] = biological target: Gal(b1-4)GlcNAc(b1-3)Gal(b1-4)GlcNAc(b1-3)GalNAc
Procedure, shortened: as §1

[15] = biological target: Gal(b1-4)GlcNAc(b1-3)Gal(b1-4)GlcNAc(b1-3)[Gal(b1-4)GlcNAc(b1-3)Gal(b1-4)GlcNAc(b1-6)]GalNAc
Procedure, shortened: as §1

[16] = biological target: Gal(b1-4)GlcNAc(b1-3)Gal(b1-4)GlcNAc(b1-6)[Gal(b1-3)]GalNAc
Procedure, shortened: as §1

[17] = biological target: Gal(b1-4)GlcNAc(b1-3)Gal(b1-4)[Fuc(a1-3)]GlcNAc(b1-3)Gal(b1-4)[Fuc(a1-3)]GlcNAc
Procedure, shortened: as §1

[18] = biological target: Gal(b1-4)GlcNAc(b1-3)GalNAc
Procedure, shortened: as §1

[19] = biological target: Gal(b1-4)GlcNAc(b1-3)[Fuc(a1-3)GlcNAc(b1-6)]Gal(b1-4)Glc
Procedure, shortened: as §1

[20] = biological target: Gal(b1-4)GlcNAc(b1-3)[Gal(b1-4)GlcNAc(b1-6)]Gal(b1-4)GlcNAc
Procedure, shortened: as §1

[21] = biological target: Gal(b1-4)GlcNAc(b1-3)[GlcNAc(b1-6)]Gal(b1-4)GlcNAc
Procedure, shortened: as §1

[22] = biological target: Gal(b1-4)GlcNAc(b1-6)Gal(b1-4)GlcNAc
Procedure, shortened: as §1

[23] = biological target: Gal(b1-4)GlcNAc(b1-6)GalNAc
Procedure, shortened: as §1

[24] = biological target: Gal(b1-4)GlcNAc(b1-6)[Gal(b1-3)]GalNAc
Procedure, shortened: as §1

[25] = biological target: Gal(b1-4)GlcNAc(b1-6)[Gal(b1-4)GlcNAc(b1-3)]GalNAc
Procedure, shortened: as §1

[26] = biological target: Gal(b1-4)GlcNAc6P
Procedure, shortened: as §1

[27] = biological target: Gal(b1-6)Gal
Procedure, shortened: as §1

[28] = biological target: Gal3S(b1-3)GalNAc
Procedure, shortened: as §1

[29] = biological target: Gal3S(b1-3)GlcNAc
Procedure, shortened: as §1

[30] = biological target: Gal3S(b1-3)[Fuc(a1-4)]GlcNAc
Procedure, shortened: as §1

[31] = biological target: Gal3S(b1-4)Glc
Procedure, shortened: as §1

[32] = biological target: Gal3S(b1-4)Glc6S
Procedure, shortened: as §1

[33] = biological target: Gal3S(b1-4)GlcNAc
Procedure, shortened: as §1

[34] = biological target: Gal3S(b1-4)[Fuc(a1-3)]Glc6S
Procedure, shortened: as §1

[35] = biological target: Gal3S(b1-4)[Fuc(a1-3)]GlcNAc
Procedure, shortened: as §1

[36] = biological target: Gal3S(b1-4)[Fuc(a1-3)]GlcNAc6S
Procedure, shortened: as §1

[37] = biological target: Gal3S4S(b1-4)GlcNAc
Procedure, shortened: as §1

[38] = biological target: Gal3S6S(b1-4)GlcNAc
Procedure, shortened: as §1

[39] = biological target: Gal3S6S(b1-4)GlcNAc6S
Procedure, shortened: as §1

[40] = biological target: Gal4S(b1-4)GlcNAc
Procedure, shortened: as §1

[41] = biological target: Gal4S6S(b1-4)GlcNAc
Procedure, shortened: as §1

[42] = biological target: Gal6P(b1-4)GlcNAc
Procedure, shortened: as §1

[43] = biological target: Gal6S(b1-3)GlcNAc
Procedure, shortened: as §1

[44] = biological target: Gal6S(b1-3)GlcNAc6S
Procedure, shortened: as §1

[45] = biological target: Gal6S(b1-4)Glc
Procedure, shortened: as §1

B1: rCnSL-A (Clitocybe nebularis) (protein)
chain: VNPNLPGPNDVFVGFRGTNNIVGAIYEKDGIKDTPLNNGADAEMGPGSYITDGLFTARIFASGSAGNNPGTTATVCKIYASGVQWRGAPKGYIPVAYFGNGPTAEQRRQTYLRTLGLPGTAIRFGNLNTNPGQGPTAPRQMVVPPGPLRSLLKASCFPAADTRLPQTLHYFEKRVDWNIITAADSQTWGH
[1]
  glycan array binding signal (z-score): 0.419
[2]
  glycan array binding signal (z-score): 3.11
[3]
  glycan array binding signal (z-score): 0.413
[4]
  glycan array binding signal (z-score): 2.09
[5]
  glycan array binding signal (z-score): 1.24
[6]
  glycan array binding signal (z-score): 5.46
[7]
  glycan array binding signal (z-score): 8.55
[8]
  glycan array binding signal (z-score): 2.68
[9]
  glycan array binding signal (z-score): 10.3
[10]
  glycan array binding signal (z-score): 2.36
[11]
  glycan array binding signal (z-score): 5.05
[12]
  glycan array binding signal (z-score): 13.6
[13]
  glycan array binding signal (z-score): 7.72
[14]
  glycan array binding signal (z-score): 0.164
[15]
  glycan array binding signal (z-score): 0.634
[16]
  glycan array binding signal (z-score): 0.467
[17]
  glycan array binding signal (z-score): 0.017
[18]
  glycan array binding signal (z-score): -0.118
[19]
  glycan array binding signal (z-score): 0.092
[20]
  glycan array binding signal (z-score): 1.9
[21]
  glycan array binding signal (z-score): -0.172
[22]
  glycan array binding signal (z-score): -0.19
[23]
  glycan array binding signal (z-score): -0.14
[24]
  glycan array binding signal (z-score): -0.081
[25]
  glycan array binding signal (z-score): 0.061
[26]
  glycan array binding signal (z-score): -0.509
[27]
  glycan array binding signal (z-score): -0.201
[28]
  glycan array binding signal (z-score): -0.259
[29]
  glycan array binding signal (z-score): -0.252
[30]
  glycan array binding signal (z-score): -0.205
[31]
  glycan array binding signal (z-score): -0.214
[32]
  glycan array binding signal (z-score): -0.235
[33]
  glycan array binding signal (z-score): -0.297
[34]
  glycan array binding signal (z-score): -0.178
[35]
  glycan array binding signal (z-score): -0.281
[36]
  glycan array binding signal (z-score): -0.25
[37]
  glycan array binding signal (z-score): -0.235
[38]
  glycan array binding signal (z-score): -0.268
[39]
  glycan array binding signal (z-score): -0.24
[40]
  glycan array binding signal (z-score): -0.261
[41]
  glycan array binding signal (z-score): -0.328
[42]
  glycan array binding signal (z-score): 0.93
[43]
  glycan array binding signal (z-score): -0.309
[44]
  glycan array binding signal (z-score): -0.334
[45]
  glycan array binding signal (z-score): -0.242

Reference: the supplement of paper PMC8728848
